Laboratory results as given in PubChem BioAssay AID1963576 (National Center for Advancing Translational Sciences (NCATS), 2024).
About 60 (0.1%) of roughly 46,000 compounds were called active. Inconclusive results (about 3%) are left out. Calls come from the whole dose curve; as a rule, active = well fitted inhibition curve with a large enough effect; inconclusive = small, poorly fitted or top-dose-only effect; inactive = no such curve, though single readings can be large or run the other way. The list shows a part of the results.

Assay: Primary qHTS assay for Inhibitors of ovarian cancer metastasis using an organotypic tumor microenvironment (TME) model.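 For activity change, negative = inhibition: plate controls were DMSO wells for no effect and tomatine positive control wells for full effect.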 Note: nearly all actives have a fitted effect of over 65% in size.
Conditions: SKOV3ip1-GFP adhesion/invasion on 3D omental model, fluorescence; series mostly up to 45.8 µM; activity change, negative = inhibition: at the top concentration
Outline: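 qHTS, 4-pt dose (0.36-46 umol/L); SKOV3ip1-GFP, 1,200 cells/well, no FBS; primary omental fibroblast/mesothelial co-culture 48 h pre-grown; 2 h RT + 16 h 37 C; PBS wash, 4% PFA; GFP count 488/509 nm.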

Activity change, negative = inhibition, inactive:
Cc1c(CNC2CCCCCC2)c(C(=O)O)c(C)n1Cc1cccc(Cl)c1 1.45%
Cc1ccc(NS(=O)(=O)c2ccc3c(c2)n(C)c(=O)n3C)c(C)c1 -6.71%
CC(=O)N1CCN(c2csc3ccc(Cl)cc3c2=O)CC1 0.163%
CCCCOC(=O)c1ccc(NC(=O)c2ccc3c(c2)CCN3S(C)(=O)=O)cc1 -4%
Cc1cccc(C(c2sc3nc(-c4ccco4)nn3c2O)N2CCOCC2)c1 (stereo unspecified) -0.471%
Cc1cccc(N2CCN(C(=O)CCS(=O)(=O)c3ccc4c(c3)CC(=O)N4C)CC2C)c1 (stereo unspecified) 8.2%
Clc1cccc(CNCCCSc2nnnn2-c2ccccc2)c1 -27.5%
COC(=O)c1scc(-c2ccc(C)cc2)c1S(=O)(=O)Nc1cc(C)c(Cl)cc1OC 4.81%
COc1ccc(NC(=O)Cn2cc(C(=O)c3ccc(C)c(C)c3)c(=O)c3cc(OC)ccc32)cc1 4.31%
CCOC(=O)c1c(-c2ccccc2)oc2ccc(OCc3ccccc3Br)cc12 1.57%
CCOc1ccccc1NC(=O)Cn1c(=O)oc2ccccc21 -3.66%
Cc1ccc(CSC2=NC(C)(C)Nc3ccccc32)c(C)c1 0.693%
COc1ccc(-c2csc3ncnc(Nc4ccccc4)c23)cc1 -7.37%
O=C(Cn1cc(C(=O)c2ccco2)c2ccccc21)Nc1ccccc1C(F)(F)F 0.26%
Fc1cccc(CN2CCc3nc(Nc4ccc5c(c4)OCCO5)ncc3C2)c1F 4.3%
O=C(NCCc1cccs1)c1ccc(Cn2c(SCc3cccc(F)c3)nc3cccnc32)cc1 11.7%
COc1ccc(Cl)cc1NC(=O)Cn1c(=O)n2nc(-c3ccccc3)nc2c2ccccc21 11.4%
COc1cc(C2C=C(C(=O)O)Nc3ncnn32)ccc1O (stereo unspecified) -3.53%
COc1ccc(-c2csc(-c3c(N)c(C(=O)c4ccc(OC)c(OC)c4)n4ccccc34)n2)cc1 -9.84%
COc1ccc(CNC(=O)c2nn(C)c3c2CSc2ccccc2-3)cc1 20.4%
COC(=O)c1c(C)oc2ccc(N(C(=O)c3ccncc3)S(=O)(=O)c3ccc(Br)cc3)cc12 -13.8%
COc1ccc(CNS(=O)(=O)c2ccc(-c3cc(C(F)(F)F)on3)s2)cc1OC -1.91%
CCN1CCc2c(sc(-n3cccc3)c2C(C)NC(=O)Nc2ccc(C(=O)OC)cc2)C1 (stereo unspecified) -1.79%
Cc1ccc(NC(=O)Cn2cc3c(n2)CCCC3)cc1Cl -12%
COc1ccc(C)c2sc(N(Cc3cccnc3)C(=O)c3cccs3)nc12 -1.47%
COc1ccc(NC(=O)c2ccco2)cc1NC(=O)c1ccccc1[N+](=O)[O-] -4.05%
Cc1ccc(NC(=O)Cn2c(=O)n(Cc3ccccc3)c(=O)c3c(C)c(C(=O)N(C)C)sc32)c(C)c1 -0.903%
CCc1cccc(C)c1Nc1nn2c(=O)c3ccccc3nc2s1 -2.7%
O=C1Nc2ccc(I)cc2C1=Cc1cc(Br)c(O)c(Br)c1 13.6%
Cc1ccc(CNC(=O)c2ccc3c(c2)c(C)c(C)n3Cc2ccc(Cl)cc2)o1 21.2%
CCc1cccc(C)c1NC(=O)CSc1nc2ccncc2[nH]1 -6.97%
Cc1c(-c2ccccc2)c(=O)oc2c(CN3CCOCC3)c(O)ccc12 5.29%
Cc1ccc(-c2noc(-c3ccc(N4CCCC4)c([N+](=O)[O-])c3)n2)cc1 0.842%
CCCc1cc(=O)[nH]c(SCc2nc(-c3ccc(OCC)cc3)no2)n1 0.239%
Cc1ccc(OCCCCn2c(-c3ccc(Cl)cc3)nc3ccccc3c2=O)cc1 3.01%
CCOC(=O)c1c(C)oc2nc(C)nc(NCCc3ccc(Cl)cc3)c12 9.84%
Cc1ccccc1CN1CCCN(CC(=O)Nc2ccc(F)cc2)S1(=O)=O 3.49%
Cc1cccc(NC(=O)c2cn(-c3ccccc3)nc2-c2ccccc2)c1C -1.88%
Cn1c(=O)oc2cc(S(=O)(=O)NC(Cc3ccccc3)C(=O)Nc3ccc(F)c(Cl)c3)ccc21 (stereo unspecified) 2.75%
CCOc1ccc(C(=O)Nc2ccc3nc(N(CC)CC)cc(C)c3c2)cc1 -6.28%
CO[C@@]12[C@H](COC(N)=O)C3=C(C(=O)C(C)=C(N)C3=O)N1C[C@@H]1N[C@@H]12 -11.5%
Cc1ccc(/C=C/C(=O)Nc2ccc3nc(N4CCC(C)CC4)cc(C)c3c2)cc1 5.97%
CCOc1ccc(NC(=O)c2sc(-n3nc(C)c(Cc4ccc(Cl)cc4)c3C)nc2C)cc1 -0.245%
Clc1ccccc1Cn1c(-c2cccs2)nc2ccccc21 -11.2%
Cc1nnc(NC(=O)c2nc(SC(C)C)ncc2Cl)s1 2.82%

outcome, inactive:
COc1ccc(-c2noc(N3CCC(C(=O)N4CCN(c5cccc(OC)c5)CC4)CC3)n2)cc1
COc1cccc(NC(=O)Cn2c(=O)n(CCC(=O)NCc3ccccc3OC)c(=O)c3ccccc32)c1
CCOc1ccc2c(c1)c(=O)c(C(=O)c1ccc(CC)cc1)cn2CC(=O)Nc1ccc2c(c1)OCCO2
O=C(Nc1cccc(F)c1)c1cnc2sc(N3CCCC3)nn2c1=O
CCOC(=O)c1ccc(N2C(=O)c3n[nH]c(-c4ccco4)c3C2c2ccccc2OC)cc1 (stereo unspecified)
COc1ccc(N(C)S(=O)(=O)c2ccc3c(c2)CCN3C(=O)CCC(=O)O)cc1
Cc1nn(S(=O)(=O)c2ccc(F)cc2)c(C)c1S(=O)(=O)N1CCCCCC1
COc1cc(-c2cc(OC)c3c(C)oc(C)c3c(=O)c2)ccc1OC(=O)c1cccc(C)c1
CCOc1ccc(C2C(C(=O)Nc3ccc(OC)cc3)=C(C)Nc3nc(CCCO)nn32)cc1 (stereo unspecified)
COc1ccc(NC(=O)C2CCN(c3cc(C)nc4c(-c5ccc(Cl)cc5)c(C)nn34)CC2)cc1
Cc1ccc(C2C=C(c3ccccc3)Nc3nc(NS(C)(=O)=O)nn32)cc1 (stereo unspecified)
CC(C)c1ccc(NC(=O)Cn2nnc(C(=O)NCc3ccc4c(c3)OCO4)c2N)cc1
Cc1ccc(NC(=O)Cn2c(=O)n(Cc3ccc4c(c3)OCO4)c(=O)c3oc4ccccc4c32)cc1C
COc1cccc(NS(=O)(=O)c2ccc3[nH]cc(C(=O)NC(C)c4ccccc4)c(=O)c3c2)c1 (stereo unspecified)
CCOC(=O)C1CCN(Cc2cn3c(-c4ccc(OC)cc4)nnc3s2)CC1
Cc1cc(N2CCC(C(=O)Nc3ccc(F)cc3F)CC2)n2nc(C)c(-c3ccc(Cl)cc3)c2n1
